# Measured values from PubChem BioAssay (Tox21).
# The shares of active, inactive and inconclusive entries below differ from those in the screen. Where the call is inconclusive, the potency comes from a doubtful curve fit. The source made the active and inactive calls. The call rests on the fitted dose curve; in most records, active means well fitted inhibition curve with a large enough effect in the signal ratio in the repeat runs (not every such curve was filed as active); inconclusive means weak or mixed curves, or effect the other way; inactive means no such curve, though single readings can be large or run the other way; the % refers to the signal ratio.
# Biological target: Glucocorticoid receptor (Homo sapiens) (UniProt P04150)
# UniProt P04150, sequence (P04150 whole entry, looked up): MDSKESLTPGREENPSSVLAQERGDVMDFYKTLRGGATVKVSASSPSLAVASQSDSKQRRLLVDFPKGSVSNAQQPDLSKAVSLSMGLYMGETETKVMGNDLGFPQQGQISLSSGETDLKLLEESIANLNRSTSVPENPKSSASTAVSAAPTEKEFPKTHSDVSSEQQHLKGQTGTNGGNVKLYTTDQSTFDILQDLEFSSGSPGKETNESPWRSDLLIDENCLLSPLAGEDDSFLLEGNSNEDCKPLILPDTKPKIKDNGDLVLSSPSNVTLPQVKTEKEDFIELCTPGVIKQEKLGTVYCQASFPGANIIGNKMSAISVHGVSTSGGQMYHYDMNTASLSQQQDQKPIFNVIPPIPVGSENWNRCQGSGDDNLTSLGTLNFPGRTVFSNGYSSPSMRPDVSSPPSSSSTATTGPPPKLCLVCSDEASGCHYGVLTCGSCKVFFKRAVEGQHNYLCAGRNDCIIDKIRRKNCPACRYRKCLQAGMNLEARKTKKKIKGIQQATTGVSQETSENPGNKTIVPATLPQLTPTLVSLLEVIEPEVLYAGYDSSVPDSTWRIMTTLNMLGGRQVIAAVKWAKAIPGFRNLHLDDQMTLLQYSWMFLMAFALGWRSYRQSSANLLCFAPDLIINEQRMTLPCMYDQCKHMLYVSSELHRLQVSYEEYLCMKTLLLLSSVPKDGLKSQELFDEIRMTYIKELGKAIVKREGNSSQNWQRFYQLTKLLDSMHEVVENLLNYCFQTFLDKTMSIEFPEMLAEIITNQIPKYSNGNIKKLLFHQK
# Assay: qHTS assay to identify small molecule antagonists of the glucocorticoid receptor (GR) signaling pathway (AID 720692)
# Conditions: GR-bla HeLa, beta-lactamase FRET ratio, dexamethasone-stimulated, 18 h; activity change, negative = inhibition: at 58.5 µM (top of the series) unless noted
# Outline: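 GR-bla HeLa cells (beta-lactamase reporter under glucocorticoid response element) were pre-plated 4 h at 37 C, treated with compounds plus 5 nM dexamethasone (final) for 18 h, then read by LiveBLAzer B/G FRET fluorescence after 2 h.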
# On the % scale 0 is the no-effect control and ±100 the full control effect; potency means the concentration at half of the fitted maximal effect; tags describe the fitted curve by direction and shape or compound fluorescence and quenching.
SMILES,"activity change, negative = inhibition",Potency
CC(Cl)CCl (stereo not given),inactive: 18.8%,
O=C1CN=C(c2ccccc2)c2cc(Cl)ccc2N1CC1CC1,inconclusive: -32%,active: 45.8 µM
CCOC(=O)C1OC1(C)c1ccccc1 (stereo not given),inconclusive: 13.3%,
ClCBr,inconclusive: 8.71% [at 78.9 µM],
OC(c1ccc(F)cc1)(c1cncnc1)c1ccccc1Cl (stereo not given),inconclusive: -28.9%,
O=C(NCO)NCO,inactive: 8.24% [at 78.9 µM],
COC(N)=O,inactive: -2.55%,
O=C1CCCO1,inconclusive: 16.9%,
O=c1[nH]c2ccccc2o1,inconclusive: 1.71%,
c1ccc(CN2CCNCC2)cc1,inactive: -6.06% [at 216 µM],
CC(=O)CCc1ccc2c(c1)OCO2,inconclusive: 7.72%,
C#CCO,inactive: -10%,
CCCN(CCOc1c(Cl)cc(Cl)cc1Cl)C(=O)n1ccnc1,inconclusive: -40.3%,"inconclusive: 63 µM [inhibitor, single point]"
NCCc1ccc(O)cc1,,inactive
O=C(C(Cl)(Cl)Cl)C(Cl)(Cl)Cl,inactive: -2.09% [at 78.9 µM],
NC(=O)C(Cl)Cl,inactive: -7.98%,
NC(=S)Nc1ccccc1,,inactive
C=CC(=O)OCC(C)C,inconclusive: 16%,
CCN,inconclusive: 5.51% [at 78.9 µM],
CCCCC(CC)COC(=O)c1ccc(C(=O)OCC(CC)CCCC)c(C(=O)OCC(CC)CCCC)c1 (stereo not given),inconclusive: -0.284%,
O=S(=O)(Cl)Cl,inconclusive: 1.54%,
CCOP(=O)(OCC)Oc1cc(C)nc(C(C)C)n1,inconclusive: -0.887% [at 78.9 µM],
Clc1ccc(C(Cl)(Cl)Cl)cc1,inconclusive: 15.7%,
